Test results: the supplement of paper PMC3334620
Over roughly 33,000 sequences, “E-score (-0.5 to 0.5)” has its median near -0.012; the highest 2% begin near 0.27. The list shows a part of the results.

The sequences below were run against T1, Vhr1 (UniProt P40522) (assay: PBM E-score (8-mer binding enrichment) (E-score (-0.5 to 0.5)); higher = stronger / more preferred TF binding; most listed sequences are background and not binding sites). Details: protein concentration: 200 nM; construct: GST-full length.
T1 sequence: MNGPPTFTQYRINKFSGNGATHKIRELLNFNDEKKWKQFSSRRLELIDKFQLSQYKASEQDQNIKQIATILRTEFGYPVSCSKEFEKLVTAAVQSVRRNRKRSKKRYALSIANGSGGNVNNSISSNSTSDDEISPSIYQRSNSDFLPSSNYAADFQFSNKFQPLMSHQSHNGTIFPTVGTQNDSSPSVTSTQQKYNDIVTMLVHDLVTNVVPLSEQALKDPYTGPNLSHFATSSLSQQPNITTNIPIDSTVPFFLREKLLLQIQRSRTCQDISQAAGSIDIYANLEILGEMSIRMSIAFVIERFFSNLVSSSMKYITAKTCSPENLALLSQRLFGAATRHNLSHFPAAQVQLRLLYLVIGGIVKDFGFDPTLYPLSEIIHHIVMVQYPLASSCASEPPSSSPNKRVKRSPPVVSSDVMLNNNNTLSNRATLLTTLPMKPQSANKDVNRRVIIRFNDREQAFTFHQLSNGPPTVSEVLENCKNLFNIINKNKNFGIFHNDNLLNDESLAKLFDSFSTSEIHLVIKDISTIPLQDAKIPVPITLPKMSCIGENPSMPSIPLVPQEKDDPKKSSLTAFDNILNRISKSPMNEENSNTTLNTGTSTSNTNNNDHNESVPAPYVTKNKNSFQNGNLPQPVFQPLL
Protocol: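 Universal 'all 10-mer' protein binding microarrays (Agilent AMADID 015681) probed with GST-tagged S. cerevisiae TFs (full-length or DBD) made by in vitro transcription/translation (PURExpress), about 100-200 nM. Bound TF was detected with fluorescent anti-GST. Each ungapped 8-mer (which stands for itself and its reverse complement) is scored by the PBM enrichment score (E-score), a modified Wilcoxon-Mann-Whitney statistic from -0.5 to +0.5, computed with the Universal PBM Analysis Suite. Scale: above 0.35 generally sequence-specific binding.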

| Sequence | PBM E-score |
| --- | --- |
| CCAAACCA | -0.0717 |
| GGCGCACC | 0.0793 |
| AGACGTAT | -0.0316 |
| AGTGATCA | 0.151 |
| GTTATTAA | -0.0935 |
| AACTGCAG | -0.111 |
| AGGAAAGC | -0.169 |
| ACTAAAGT | -0.0442 |
| CGACAATC | 0.0993 |
| CCCCGTCA | 0.0329 |
| ACGTATAA | 0.0234 |
| ACCCCTAG | -0.00022 |
| ATTCCAGC | -0.0337 |
| AGTCTTCC | 0.203 |
| CGGATGCA | -0.289 |
| GGTGAGAC | 0.044 |
| GAATTTGC | -0.0954 |
| CTTGAAGC | -0.296 |
| GAACTCAC | 0.151 |
| ATAGGCGC | -0.24 |
| CCGCGGAA | -0.0813 |
| CCCGGACC | 0.0207 |

| Sequence | PBM E-score |
| --- | --- |
| CACCGTGC | 0.0956 |
| ATGTTCCC | 0.137 |
| AACTGCAA | -0.0197 |
| CTACGAAA | -0.208 |
| CATAAAGA | -0.0719 |
| AGCACCAC | -0.0194 |
| GCCGTGCC | -0.0466 |
| TCAGTACA | 0.00165 |
| AATACCGT | 0.0598 |
| CTCTGACA | -0.0344 |
| GCGCTACC | -0.211 |
| AAGAAGCA | -0.0698 |
| TTATCAAA | 0.102 |
| TATGAACA | 0.161 |
| GCGAGGCA | 0.0598 |
| AAGACGCT | -0.263 |
| ATTTAATA | -0.0341 |
| AAATGGAA | -0.257 |
| GTGAGGTA | 0.0496 |
| CAGCCACC | 0.206 |
| AGTAATAT | 0.166 |
| CTCAGACC | -0.00267 |

| Sequence | PBM E-score |
| --- | --- |
| CACAAAAG | -0.0041 |
| CAGGGCTC | -0.0787 |
| CGAGAAAA | -0.162 |
| CTAATCGC | 0.0314 |
| GGTGGGTA | 0.159 |
| CGCGACCA | 0.245 |
| CACGATTA | 0.125 |
| ATCCTTCG | -0.0337 |
| GATGGCAC | -0.127 |
| AGTCTGAC | 0.148 |
| AAAACTGA | -0.182 |
| ATTGCGGA | 0.125 |
| CCGCAAGG | -0.193 |
| CTAACGCA | -0.137 |
| GAGTCCAC | 0.197 |
| ACTCGAAT | -0.049 |
| CGTAGCGA | -0.00349 |
| AGATTATA | -9e-05 |
| ATTCTCCG | -0.00042 |
| AAACACGA | -0.161 |
| CACACGAG | 0.155 |
| ATTTTGTA | 0.0819 |

| Sequence | PBM E-score |
| --- | --- |
| TCAGCGAA | -0.0705 |
| CAGCTTCA | -0.0908 |
| ATATAGAC | 0.031 |
| CACCGTAA | 0.0211 |
| CCCCAGAC | -0.174 |
| ACGCAACG | 0.0366 |
| AAAACTCG | -0.0315 |
| TCACTGAA | 0.0867 |
| CATCTCTC | 0.0645 |
| AGTCGTTC | 0.0102 |
| AGATGGAT | 0.0323 |
| ACTCAAAA | 0.182 |
| CACCTCGA | 0.111 |
| CCCAGGTC | -0.211 |
| ATTCTTAC | -0.00122 |
| CCTGCGCC | 0.0768 |
| ATTAGAGG | -0.169 |
| CTGCAATC | 0.136 |
| TAAGATGA | -0.0629 |
| ATCCGTAG | -0.084 |
